# In US20220273768A1 (The George Washington University, priority 2019, published 2022):
# System: DIO mice
# Assay: Tail flick test (hot water tail immersion)
# Details: 60 minutes after morphine, IN leptin 0.8 mg/kg
substance,measurement,value
leptin,mice in which the increase in tail flick latency was consistent,six out of seven
